According to PubChem BioAssay AID886 (National Center for Advancing Translational Sciences (NCATS), 2007):
Among all 73,000 compounds or so, about 2,500 (3.4%) were called active. The inconclusive results got no clear call from the source; some entries with a clear call stand among them for comparison. Calls come from the whole dose curve; as a rule, active = well fitted inhibition curve with a large enough effect; inconclusive = small, poorly fitted or top-dose-only effect; inactive = no such curve, though single readings can be large or run the other way. Potencies of inconclusive entries are doubtful fits and often do not repeat. Some structures have more than one record in an assay (separate samples or runs), and their calls can disagree.

What follows are compounds tested against 3-hydroxyacyl-CoA dehydrogenase type-2 (Homo sapiens) (UniProt Q99714) (assay: qHTS Assay for Inhibitors of HADH2 (Hydroxyacyl-Coenzyme A Dehydrogenase, Type II)). Conditions: recombinant HADH2, NADH fluorescence, beta-hydroxybutyryl-CoA; activity change, negative = inhibition: at 57.1 µM (top of the series).
Method in brief: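 Read-out: 360 nm excitation, 450 nm emission, kinetic over 4 min. Conditions: His-tagged human HADH2 20 nM, pH 9.0 Tris with Tween-20, 1 mM NAD+, 90 uM beta-hydroxybutyryl-CoA.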
% is set by controls: 0 for no effect and ±100 for the full control effect; potency is the fitted concentration of half-maximal effect; tags give direction and shape of the fitted curve.
Note: nearly all actives have a fitted effect of over 60% in size.

UniProt Q99714, sequence (Q99714 whole entry, looked up): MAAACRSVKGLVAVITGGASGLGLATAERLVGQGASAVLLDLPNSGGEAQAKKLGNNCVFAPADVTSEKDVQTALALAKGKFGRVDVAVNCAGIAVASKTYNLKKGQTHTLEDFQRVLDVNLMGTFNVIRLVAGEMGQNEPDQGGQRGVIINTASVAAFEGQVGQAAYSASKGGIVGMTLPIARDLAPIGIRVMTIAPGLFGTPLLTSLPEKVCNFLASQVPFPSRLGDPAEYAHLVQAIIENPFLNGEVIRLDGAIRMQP
UniProt Q99714, sequence (Q99714 whole entry, looked up): as above

Compound | Potency | activity change, negative = inhibition
Cn1nc(-c2ccc(Cl)cc2)c2cc(C(=O)NCCCN3CCOCC3)sc21 | inconclusive: 7.94 µM [inhibitor, single point] | 
Cc1cc(C)cc(C(=O)/C=C2\NC(=O)CS2)c1 | inconclusive: 39.8 µM [inhibitor, single point] | 
CCOc1ccc(-c2nnn(CC(=O)c3cc(OC)ccc3OC)n2)cc1 | inconclusive: 39.8 µM [inhibitor, single point] | 
Cc1cccc(Cn2c(C(C)O)nc3ccccc32)c1 (configuration not stated) | inactive | 
COCCN(CC(=O)NCc1ccc(F)cc1)C(=O)CCC(=O)Nc1nccs1 | inactive | 
COC(=O)[C@@H]1CC[C@H](C)[C@@H](c2ccc(C)cc2)N1C(=O)c1ccc(/C=N\OCC[C@@H]2C=C[C@H](OC(C)=O)[C@H](COC(C)=O)O2)cc1 |  | inactive: -1.39% [at 11.4 µM]
COC(=O)CC(=O)CSc1nc(C)cc(C)c1C#N | active: 25.1 µM | 
COc1cc2ccc(=O)oc2cc1O | active: 5.01 µM | 
Cn1c(SCC(=O)Nc2cccc3ccccc23)nc(O)cc1=O | inactive | 
COCCn1c(=S)[nH]c2cc(OC)c(OC)cc2c1=O | inconclusive: 25.1 µM [inhibitor, partial curve] | 
c1ccc(CCc2ccccc2-c2nc(-c3cccnc3)no2)cc1 | inactive | 
CCOC(=O)N1CCN(c2c(NC3CCN(Cc4ccccc4)CC3)c(=O)c2=O)CC1 | inactive | 
Cc1noc(C)c1C(=O)Nc1sc2c(c1C(N)=O)CCC2 | inconclusive: 20 µM [inhibitor, partial curve] | 
Cc1nn(C)c(C)c1NC(=O)c1ccnn1C | inconclusive: 6.31 µM [inhibitor, single point] | 
c1ccc2c(SCc3cn4cccnc4n3)ncnc2c1 | inconclusive: 31.6 µM [inhibitor, single point] | 
CCN1CCN(Cc2cc(=O)oc3ccc(Cl)cc23)CC1 | inactive | 
CC1=C(C(=O)OC(C)C)C(c2cccnc2)C2=C(CCCC2=O)N1 (configuration not stated) | active: 25.1 µM | 
O=C(CN1C(=O)c2cccc3cccc1c23)Nc1ccc2c(c1)OCO2 | inactive | 
CCOC(=O)c1oc2cccc(OC(C)=O)c2c1C | inconclusive: 39.8 µM [inhibitor, single point] | 
CC(C)n1c(N2CCN(C(=O)c3cccs3)CC2)nc2ccccc21 | inactive | 
COc1cccc(C2C(C#N)=C(N)OC3=C2C(=O)CCC3)c1OC(=O)c1ccco1 (configuration not stated) | inconclusive: 15.8 µM [inhibitor, partial curve] | 
c1ccc2c(Nc3ccncc3)nc(-c3ccc4c(c3)OCO4)nc2c1 | active: 25.1 µM | 
